Reference: PubChem BioAssay AID463173 (ICCB-Longwood Screening Facility, Harvard Medical School, 2010)
Out of some 52,000 compounds screened, about 1,700 (3.3%) were called active. Rule as the data show it: active = survival mostly below about 52% (no sharp cut-off); inactive = mostly above about 56%. The list shows a part of the results.

test system: Wild type; experiment: S. aureus survival, RN4220 and DeltatarO strains – OD600, teichoic acid synthesis inhibitors, primary screen (AID 463173); details: S. aureus RN4220 wild type/DeltatarO growth, OD600, 18 h, stronger effect = lower value, screened at 18.75 µg/mL (by protocol)

Compound | survival
CC(C)Sc1oc(-c2cccs2)nc1S(=O)(=O)c1ccc(Cl)cc1 | inactive: 66%
CCOc1ccc(CCNC(=O)c2cn(CC)c3ccc(S(=O)(=O)N4CCc5ccccc5C4)cc3c2=O)cc1OCC | inactive: 70%
CCn1c2ccccc2c2cc(CN3CCN(Cc4ccccc4F)CC3)ccc21 | active: 4%
Cc1nc(C)c(C(=O)Nc2ccccc2)s1 | inactive: 106%
CCOc1ccc(S(=O)(=O)NCCc2sc3nc(-c4ccc(F)cc4)nn3c2C)cc1 | inactive: 63%
COc1ccc(-c2cc(C(F)(F)F)nc(S(=O)(=O)CCCC(=O)Nc3cccc(O)c3)n2)cc1OC | inactive: 84%
CCC(=O)Oc1ccc(/C=C(\C#N)c2nc3ccccc3[nH]2)cc1OC | inactive: 63%
CCc1ccc(NCc2cc3cc4c(cc3n(CC(=O)Nc3ccc(C)cc3)c2=O)OCO4)cc1 | inactive: 113%
CCOc1ccccc1NC(=O)C(=O)NCCc1sc(-c2cccc(F)c2)nc1C | inactive: 72%
CSc1nc(-c2ccccc2F)c(C#N)c(=O)n1C | inactive: 117%
CCOc1ccc(NC(=O)C2CCCN(S(=O)(=O)c3cccc4nonc34)C2)cc1 (centres undefined) | inactive: 91%
Cc1ccc(Nc2c(-c3cccs3)nc3nc(C)cc(C)n23)cc1 | inactive: 65%
CC(=O)c1ccc(NC(=O)CSc2nnc3ccc(-c4ccc(Cl)cc4)nn23)cc1 | inactive: 92%
Cc1oc2ncnc(N3CCCCC3)c2c1C(=O)N1CCN(c2cccc(C(F)(F)F)c2)CC1 | inactive: 87%
CCOc1ccc(NC(=O)NCc2c(-n3cccc3)sc3c2CCCC3)cc1 | inactive: 88%
CCOc1ccc(NC(=O)CSc2nccn2Cc2ccco2)cc1 | inactive: 90%
COc1ccc(-c2nc3ccccc3s2)cc1NC(=O)COc1ccc(C)cc1 | inactive: 123%
CCC(=O)Nc1ccc2c(c1)C(=O)OC2 | inactive: 110%
COc1ccc(OCC(=O)OCc2cc(=O)n3cc(C)sc3n2)cc1 | active: 1%
CN1C(=O)CSC1=Nc1ccc(F)cc1 | inactive: 131%
CCC1CCCCN1S(=O)(=O)c1ccc(C(=O)Nc2sc3c(c2C(=O)NC)CCC3)cc1 (centres undefined) | inactive: 73%
CCOCCCN1C(=O)CN(C2CCCCCC2)C(=O)C1c1ccc(OC(C)C)c(OC)c1 (centres undefined) | inactive: 99%
COc1ccc(NC(=O)c2cc3nc(-c4ccc(C)c(C)c4)cc(C(F)(F)F)n3n2)cc1 | inactive: 90%

Compound | survival
COc1ccccc1CNC(=O)c1oc2ccc(S(=O)(=O)N3CCCCC3)cc2c1C | inactive: 77%
CCc1ccccc1NC(=O)c1ccc2c(O)c(S(=O)(=O)c3ccccc3)c(=O)[nH]c2c1 | inactive: 86%
CCOC(=O)C1CCN(C(=O)CCS(=O)(=O)c2cc3c(cc2Cl)NC(=O)CO3)CC1 | inactive: 84%
CCCC(C)NS(=O)(=O)Cc1ccccc1 (centres undefined) | inactive: 108%
Cc1ccc(CSc2ncc(Cl)c(C(=O)NCCc3ccc(S(N)(=O)=O)cc3)n2)cc1 | inactive: 78%
COc1ccc(NC(=O)CSc2nc(-c3ccc(OC)cc3)[nH]c2-c2ccc(OC)cc2)cc1 | inactive: 76%
Cc1ccc(N(CC(=O)NCc2ccc(Cl)cc2)S(=O)(=O)N(C)C)cc1 | inactive: 84%
Cc1ccc(N(Cc2ccc(C(=O)NCc3ccco3)cc2)S(C)(=O)=O)cc1C | inactive: 103%
COc1ccc(-c2cc(OC(=O)c3ccc(Cl)cc3)c3c(C)oc(C)c3c(=O)c2)cc1 | inactive: 78%
COC(=O)c1ccc(Nc2nnc(-c3ccc(C)c(S(=O)(=O)N4CCN(C)CC4)c3)c3ccccc23)cc1 | inactive: 69%
Cc1cccc(CN2C(=O)c3ccccc3S(=O)(=O)c3ccc(C(=O)NCCC4=CCCCC4)cc32)c1 | inactive: 91%
Cc1ccc(C(=O)Nc2cccc(-c3nc4cccnc4s3)c2C)cc1 | inactive: 112%
COc1ccc(C2C(C#N)=C(N)OC3=C2C(=O)CCC3)cc1 (centres undefined) | inactive: 98%
O=C(CC1C(=O)N(c2ccccc2)C(=O)N1CCC1=CCCCC1)Nc1ccc(F)cc1 (centres undefined) | inactive: 66%
CCCN1CCN(CCNC(=O)Nc2ccc(OC)cc2OC)CC1 | inactive: 88%
O=C(NC1CCCCC1)C1CC(c2ccccc2O)=NO1 (centres undefined) | inactive: 114%
COc1ccccc1N(CC(=O)NCCSCc1ccccc1)S(=O)(=O)c1ccc(C)cc1 | inactive: 67%
COCCNC(=O)Cn1nc(N2CCN(c3ccccc3OC)CC2)ccc1=O | inactive: 78%
CCOc1ccc(NC(=O)N2CCN(S(=O)(=O)c3ccc4c(ccn4C)c3)CC2)cc1 | inactive: 73%
Cc1ccccc1NC(=O)CSc1nc(-c2ccccc2C)nc2cc(=O)[nH]n12 | inactive: 94%
O=C1CN(C(=O)Cc2ccc(F)cc2)C(c2ccccc2)c2cc(Cl)ccc2N1 (centres undefined) | inactive: 121%
COc1ccc(NC(=O)Cn2c(=O)n(C(C)C)c(=O)c3oc4ccccc4c32)cc1Cl | inactive: 66%
CCc1ccc(C(=O)c2cn(CC(=O)Nc3ccc(F)cc3)c3ccc(OC)cc3c2=O)cc1 | inactive: 79%

Compound | survival
CC(=O)N1CCN(c2csc3ccc(F)cc3c2=O)CC1 | inactive: 72%
Cc1nn(-c2ccccc2)c(OC(=O)C(C)C)c1Sc1ccccc1 | inactive: 57%
Brc1cccc(CNCCSc2nnnn2-c2ccccc2)c1 | inactive: 61%
CCc1ccccc1N(C)C(=O)Cc1c(C(=O)O)c(C)cn1C | inactive: 73%
Cc1cc(C)cc(OCC(=O)NCCc2nc3ccccc3[nH]2)c1 | inactive: 129%
Cc1ccc(NC(=O)Cc2ccc(-n3c(C)nc4cccnc43)cc2)cc1C | inactive: 120%
O=C(O)CC1=C(c2cccs2)CCC1=O | inactive: 105%
Cc1cc(C)c(NC(=O)C(C)n2nc(-c3ccc(C)c(C)c3)ccc2=O)c(C)c1 (centres undefined) | inactive: 87%
COc1cccc(CNC(=O)CCc2cn(Cc3ccccc3Cl)c3ccccc23)c1 | inactive: 106%
CCCCOc1ccc(S(=O)(=O)Nc2ccc(-c3ccc(N4CCCCCC4)nn3)cc2)cc1 | inactive: 75%
COc1cc(/C=C/C(=O)O)cc(S(=O)(=O)N2CCc3ccccc32)c1OC | inactive: 107%
COC(=O)c1cccc(-n2c(CCC(=O)O)ccc2-c2ccc(OC)cc2)c1 | inactive: 72%
Cc1ccc(Cl)cc1NC(=O)C(C)n1nnc2sc(-c3ccccc3)cc2c1=O (centres undefined) | inactive: 89%
O=C(COc1ccc2oc3c(c2c1)CCCC3)Nc1ccc(Br)cc1 | inactive: 80%
COc1ccc(Cn2c(SCc3ccc(C(=O)NC4CCCC4)cc3)nc3ccncc32)cc1 | inactive: 80%
CCOC(=O)c1c(C)oc2ncnc(N3CCN(c4ccccc4OC)CC3)c12 | inactive: 73%
CN(C1CCCCC1)S(=O)(=O)Cc1ccccc1 | inactive: 94%
C=CCNC(=O)C(C)Sc1nnc2c(n1)[nH]c1ccccc12 (centres undefined) | inactive: 104%
CCCOc1cccc(C(=O)Nc2cccc(NC(=O)c3ccc(C(C)(C)C)cc3)c2)c1 | inactive: 76%
COc1cc(OC)cc(C(=O)Nc2ccccc2-c2nc3ccccc3s2)c1 | inactive: 41%
CN(C)c1ccc(C(CNC(=O)c2ccc(C(C)(C)C)cc2)N2CCOCC2)cc1 (centres undefined) | inactive: 88%
COc1ccc2[nH]c(C)c(CCNS(=O)(=O)c3cc(F)ccc3OC)c2c1 | inactive: 87%
COc1ccc(CCNC(=O)C2(c3cccs3)CCOCC2)cc1OC | inactive: 91%

Compound | survival
Cc1coc2cc3oc(=O)c(CCC(=O)NCc4ccc(Cl)cc4)c(C)c3cc12 | inactive: 88%
Cc1ccc(NCCOc2ccccc2)c(C)c1 | inactive: 107%
COc1ccc(-c2nc3c4ccccc4n(CC(=O)Nc4cc(F)ccc4F)c(=O)n3n2)cc1 | inactive: 77%
CCOc1ccc(OC(=O)c2cn(-c3ccc(C)cc3)c(=O)c3ccccc23)cc1 | inactive: 74%
CCCCC(=O)Nc1ccccc1C(=O)OCc1cc(=O)n2nc(C3CCCCC3)sc2n1 | inactive: 45%
COc1cc(-c2ccno2)ccc1S(=O)(=O)N1CCN(c2ccc(C(C)=O)cc2)CC1 | inactive: 60%
COc1ccc(-c2cc(C(F)(F)F)n3nc(C(=O)Nc4cc(Cl)cc(Cl)c4)cc3n2)cc1 | inactive: 75%
CCOC(=O)C1CCN(C(=O)Cn2nc(C)n3c(cc4cc(F)ccc43)c2=O)CC1 | inactive: 75%
COc1ccc(N2CCN(S(=O)(=O)CCNC(=O)Cc3ccc(Cl)cc3)CC2)cc1 | inactive: 68%
CCn1cc(S(=O)(=O)c2cc(C)cc(C)c2)c(=O)c2cc(F)c(N3CCCC3)cc21 | inactive: 129%
CCOc1ccc(CCNC(=O)c2nnc(Cc3cc(OC)c(OC)c(OC)c3)o2)cc1OCC | inactive: 85%
CCCCN1C(=O)CN(C2CCCCCC2)C(=O)C1c1ccc(OCCC)c(OC)c1 (centres undefined) | inactive: 87%
O=C(CCNc1n[nH]c(=O)[nH]c1=O)N1CCCCC1 | inactive: 101%
COc1ccc(OC)c(NC(=O)CSC2=Nc3ccccc3C3=NC(CC(=O)NCc4ccc5c(c4)OCO5)C(=O)N23)c1 (centres undefined) | inactive: 74%
COc1cc(Cl)c(C)cc1NC(=O)c1sc2nc3n(c(=O)c2c1C)CCCCC3 | inactive: 84%
Cc1ccccc1Cn1c(=O)n(Cc2ccc(Cl)cc2)c(=O)c2cccnc21 | inactive: 82%
Cn1c(SCc2ccc(C(F)(F)F)cc2)nc2c([nH]c3ccccc32)c1=O | inactive: 92%
O=c1cc(N2CCN(c3ccc(F)cc3)CC2)[nH]c(=O)n1-c1ccc(Br)cc1 | inactive: 130%
CCOC(=O)c1c(NC(=O)c2nc(SC(C)C)ncc2Cl)sc2c1CCCC2 | inactive: 89%
COc1cc(NC(=O)N2CCC(CN3CCCC3)CC2)cc(OC)c1OC | inactive: 71%
